The supplement of paper PMC10126150
Sequences with one replicate were seen in a single cluster, so their values are uncertain.

System: ATP
Test: switch fluorescence ratio, 500 uM ATP over buffer (Cy3 cluster intensity, sum of 5 cycles each) (fold (ratio)); higher = stronger signal-on switching upon ATP binding; sequences stand for … in TCGTCGGCAGCGTCAGATGTGTATAAGAGACAGTTTTTTTTTTTTTTTTTTTTTTTTT…TC
Details: aptamer strand: ATP DNA aptamer (quencher-CACCTGGGGGAGTATTGCGGAGGAAGG + anchor), 100 nM annealed; ATP concentration: 500 uM; one replicate
Summary of the method: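 Switching-strand clusters labelled with Cy3 on a modified Illumina MiSeq flow-cell were annealed to 100 nM quencher-labelled ATP aptamer, imaged in selection buffer, and re-imaged after 15 min with 500 uM ATP at 22 °C. This was done over five cycles with NaOH stripping and re-annealing in between. The fluorescence ratio is summed target-cycle over summed buffer-cycle Cy3 intensity per cluster, averaged per switch-domain sequence, excluding clusters outside 100-1000 RFU.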
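Further: ATP exposure 15 min at 22 °C before imaging.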

Sequence	switch fluorescence ratio
AAGGAAACAG	1.01
ATGTATATAC	1.02
ACTCAAGTGC	1.33
GGACGCCACG	1.03
GTGGCGGCCG	0.967
GATACAAGAA	1
CCAGGGGTTA	1.48
TATCACTCTA	1.06
ATTCGCCTTC	1.16
GTTACAGGAA	0.983
GGATGGTGTC	0.976
AACTTTTACC	1.08
ACTTCAGGCC	1.01
ATCGAGTTTC	1
CGACATGTCG	0.961
CGTATATAGG	1.01
CCTCGCTTTG	1.71
ACCCAACAGC	1.16
CCTGCGAACG	1.44
TTGGCCGCAG	1.08
TTGCAAGTGC	1.45
AAAGCGCGAA	1.02
ATGACCGTTC	1.04

Sequence	switch fluorescence ratio
TAGCCATTG	0.995
AAGGTAGGAG	1.01
ACCAACTTGA	1.32
ATCGCAGTAT	1.13
GAATCAGGTT	1.01
CGTAGCTGAG	1.08
CAATTGGCAG	0.952
TCGGGCGTTT	0.974
AAATATGTGT	0.985
TTAGTGAGTT	1.02
GCACAGCGCA	1.05
CGCCGTAACT	1
TCGGCGATGT	0.999
GGAATCGATG	0.992
AACTGGCTCC	1.18
TAGATATATG	0.985
CACAAGCCTA	0.967
CATTTGAATC	1.02
GTATTTGGG	1.02
TGCTCATTAC	1.28
AGCATGCCGC	0.954
GGACAGCGA	1.06
TCTTAGGGTC	0.999

Sequence	switch fluorescence ratio
CACGACTCCA	1.18
CAGGAGAGTC	1.01
GGAAAGGGTA	0.969
TTATACAGGG	0.961
CAGATGCAAT	4.46
TCGCCTCATG	1
CGTGAAGGGC	0.957
AGGAACTTTG	0.979
TCTATAGAAG	1.02
GATTCGGGAC	0.993
TACTGTAAGG	1.01
GCCGCGGATT	1.05
TTTATAGGAC	0.963
TACTACCGTT	1.04
ACACTGAGGT	1
CGCGTTTAA	1.04
TTTAGCGAAG	0.976
AACAATTTGG	0.979
ACTGATTAG	0.999
CTAACTGTG	0.93
AGGCTACCTG	1.05
TAGCTTGAAG	1.02
GTGCACGCCC	0.971

Sequence	switch fluorescence ratio
TGGTGCGCGT	1.11
TTTCCCGGCC	0.992
ATACCCAAAC	1.13
ATAGGGCTTC	0.953
CAATCTGGGT	1
AGGGTGATG	0.983
ATTACGATCG	1.05
GCGTGTATAG	1.01
AATCGAGCAT	1.08
ACCAGATCGG	0.976
GCCAGAAGCC	1
GGATTGGGTA	0.943
CGGCCCCGAC	1.05
TCGATTCAGA	1.05
ACCCATAAGC	1.05
AATATGCTTG	0.994
CAACAGGCGC	0.992
TAAGACGCGG	1.04
AGCCATTATG	1
GGCATATCGG	0.973
GACGGTACGA	1.12
CCGTCTGTG	1.03
GGGCGATAAG	0.984

Sequence	switch fluorescence ratio
GTTGTACGAC	1.04
GGCCGTTACA	1.04
AAGCCGGCTG	1.01
CCATGCTC	1.14
GCACGCCGTT	0.99
GCAAATTTGT	0.983
AGGGGCTTA	0.987
TATTATCTG	1.04
ACAGCCGTTT	1.05
CTCTCTAGGA	1.02
GACTGGGCCG	0.946
CGTGGGGATT	1.06
GATGAGACTA	0.992
CATGCTAGTA	0.985
CATGATGGTT	1.01
AAAAACTTTT	1.08
TTTCCCTCAT	1.06
TCCAAGAGGC	1.56
TGTCCGTCTC	1.32
CCCGCCTGTA	1.1
TGGTTTCGGC	1
CGTATTAGTT	0.975
AATCCCGGAT	1.08

Sequence	switch fluorescence ratio
TTACCGTATG	1.02
ATCTGCTG	1.02
GCTCGTCGTG	0.974
ATATCCTGTT	1.01
CAAAAGCCAA	1.08
GCCGCCCTAT	1.06
TACCAATTGG	1.01
CCAGTAAAA	1.01
TATTTGTTTC	1.02
ACCCCTGTGC	1.87
AGGTTCGTCA	1.02
CAACAGAATC	0.988
AATGGCCCGC	1
GGAGCCTAAA	0.996
GCTCTGGACA	1.09
ATAGCATGGG	0.993
ATAGGTGCCA	1.03
TGCTCGGTGA	1.01
GCAAACGTCG	0.988
CGTCGACTTA	1
TAACAAAAAA	0.958
CCGAGTTCTC	1.12
TTTGGCGGGT	1.03

Sequence	switch fluorescence ratio
ATGTCCTTAG	1.02
CCGTGCTCGG	0.997
GGATCTCATA	0.989
GAGAAGATAA	1.05
ACGCTCATAT	1.28
CGGACGGGT	0.99
CTCTTGGATT	0.99
GCAATCGTTA	1.11
CTTCGGGGCC	1.86
GATCCTGTCG	1.05
TGGCACCCCG	1.1
GACCCCGTCA	1.02
CAAAATCGTA	0.999
TGCATCGACG	0.994
CTCTTTGCCG	0.94
GACTACATCA	1.06
CAGCTGCGCA	0.989
GCCTATATA	1
GCGTGTGGAG	1.01
